Source: the supplement of paper PMC12217912
The other results are listed elsewhere or left out. Sequences were assembled here from the parent chain. Inactive controls read about 0.05.

B1: TEV protease; numbered along this chain (parent)
chain: MGESLFKGPRDYNPISSSICHLTNESDGHTTSLYGIGFGPFIITNKHLFRRNNGTLVVQSLHGVFKVKDTTTLQQHLVDGRDMIIIRMPKDFPPFPQKLKFREPQREERICLVTTNFQTKSMSSMVSDTSCTFPSGDGIFWKHWIQTKDGQCGSPLVSTRDGFIVGIHSASNFTNTNNYFTSVPKNFMELLTNQEAQQWVSGWRLNADSVLWGGHKVFMVKPEEPFQPVKEATQL

Variants of: B1
Assay: raw area under fraction-flipped curve 0-4 h after induction (AUC4h, not background-subtracted), DNA-recorder readout of cleavage of the substrate (dimensionless); higher = more cleavage of the substrate by the protease variant
Conditions: temperature: 34 °C; time window: 0-4 h after rhamnose induction
Experimental: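 In vivo DNA recorder in E. coli TOP10(DE3) ΔrhaA at 34 °C. Each TEVp single-site mutant (parent TEVp 0) is paired with a single-site variant of the 7-mer TEVs (canonical ENLYFQ|S). The substrate sits between flexible linkers in a Bxb1-sfGFP-TEVs-SsrA fusion, so cleavage stabilises Bxb1 and speeds flipping of a recombination array, read by NGS. The value is the raw area under the fraction-flipped curve over 0-4 h after rhamnose induction (AUC4h), with ≥20 reads per time point. It is not background-subtracted; inactive controls average about 0.047.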
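Also: Bxb1 expression induced with 0.2% (w/v) L-rhamnose at OD600 near 0.5, cultures sampled hourly, flipped fraction per protease–substrate barcode pair counted by paired-end Illumina sequencing.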

Variant | area with substrate ECLYFQS | area with substrate EDLYFQS | area with substrate EELYFQS | area with substrate EFLYFQS | area with substrate EGLYFQS | area with substrate EHLYFQS | area with substrate EILYFQS | area with substrate EKLYFQS | area with substrate ELLYFQS | area with substrate EPLYFQS | area with substrate EQLYFQS | area with substrate ERLYFQS | area with substrate ESLYFQS | area with substrate EVLYFQS | area with substrate EWLYFQS | area with substrate EYLYFQS | area with substrate EMLYFQS | area with substrate ETLYFQS
MGESLFKGPRDYNPISSSICHLTNESDGHTTSLYGIGFGPFIITNWHLFRRNNGTLVVQSLHGVFKVKDTTTLQQHLVDGRDMIIIRMPKDFPPFPQKLKFREPQREERICLVTTNFQTKSMSSMVSDTSCTFPSGDGIFWKHWIQTKDGQCGSPLVSTRDGFIVGIHSASNFTNTNNYFTSVPKNFMELLTNQEAQQWVSGWRLNADSVLWGGHKVFMVKPEEPFQPVKEATQL [K46W] | 0.0584 | 0.0678 | 0.0602 | 0.0468 | 0.0552 | 0.0624 | 0.0526 | 0.0405 | 0.0574 | 0.0563 | 0.0683 | 0.0602 | 0.0651 | 0.0242 | 0.0619 | 0.0554 |  | 
MGESLFKGPRDYNPISSSICHLTNESDGHTTSLYGIGFGPFIITNIHLFRRNNGTLVVQSLHGVFKVKDTTTLQQHLVDGRDMIIIRMPKDFPPFPQKLKFREPQREERICLVTTNFQTKSMSSMVSDTSCTFPSGDGIFWKHWIQTKDGQCGSPLVSTRDGFIVGIHSASNFTNTNNYFTSVPKNFMELLTNQEAQQWVSGWRLNADSVLWGGHKVFMVKPEEPFQPVKEATQL [K46I] | 0.0831 | 0.0879 | 0.0726 |  | 0.0608 | 0.0688 | 0.0643 | 0.0509 | 0.0682 |  | 0.0634 | 0.0626 | 0.0582 | 0.0589 | 0.0854 | 0.0621 | 0.0624 | 0.0738
MGESLFKGPRDYNPISSSICHLTNESDGHTTSLYGIGFGPFIITNKPLFRRNNGTLVVQSLHGVFKVKDTTTLQQHLVDGRDMIIIRMPKDFPPFPQKLKFREPQREERICLVTTNFQTKSMSSMVSDTSCTFPSGDGIFWKHWIQTKDGQCGSPLVSTRDGFIVGIHSASNFTNTNNYFTSVPKNFMELLTNQEAQQWVSGWRLNADSVLWGGHKVFMVKPEEPFQPVKEATQL [H47P] | 0.0636 | 0.057 |  |  | 0.0662 | 0.0612 | 0.0661 | 0.0619 | 0.0553 | 0.0609 | 0.0584 | 0.063 | 0.0453 | 0.0656 | 0.06 |  | 0.0638 | 0.0413
MGESLFKGPRDYNPISSSICHLTNESDGHTTSLYGIGFGPFQITNKHLFRRNNGTLVVQSLHGVFKVKDTTTLQQHLVDGRDMIIIRMPKDFPPFPQKLKFREPQREERICLVTTNFQTKSMSSMVSDTSCTFPSGDGIFWKHWIQTKDGQCGSPLVSTRDGFIVGIHSASNFTNTNNYFTSVPKNFMELLTNQEAQQWVSGWRLNADSVLWGGHKVFMVKPEEPFQPVKEATQL [I42Q] | 0.0477 |  |  |  |  |  |  | 0.0485 | 0.0309 |  | 0.0542 | 0.037 | 0.0463 |  | 0.0394 | 0.0424 | 0.0421 | 0.0357
MGESLFKGPRDYNPISSSICHLTNESDGHTTSLYGIGFGPFIITNKHLFRFNNGTLVVQSLHGVFKVKDTTTLQQHLVDGRDMIIIRMPKDFPPFPQKLKFREPQREERICLVTTNFQTKSMSSMVSDTSCTFPSGDGIFWKHWIQTKDGQCGSPLVSTRDGFIVGIHSASNFTNTNNYFTSVPKNFMELLTNQEAQQWVSGWRLNADSVLWGGHKVFMVKPEEPFQPVKEATQL [R51F] | 0.134 | 0.173 | 0.113 |  |  |  | 0.138 | 0.138 |  | 0.126 | 0.15 | 0.133 | 0.109 | 0.103 |  |  | 0.117 | 0.137
MGESLFKGPRDYNPISSSICHLTNESDGHTTSLYGIGFGPFIIGNKHLFRRNNGTLVVQSLHGVFKVKDTTTLQQHLVDGRDMIIIRMPKDFPPFPQKLKFREPQREERICLVTTNFQTKSMSSMVSDTSCTFPSGDGIFWKHWIQTKDGQCGSPLVSTRDGFIVGIHSASNFTNTNNYFTSVPKNFMELLTNQEAQQWVSGWRLNADSVLWGGHKVFMVKPEEPFQPVKEATQL [T44G] | 0.0812 | 0.087 |  | 0.0692 | 0.0667 | 0.0671 |  | 0.0721 | 0.0624 | 0.0868 | 0.0583 | 0.08 | 0.0461 | 0.0768 | 0.061 |  |  | 0.0815
MGESLFKGPRDYNPISSSICHLTNESDGHTTSLYGIGFGPFIIHNKHLFRRNNGTLVVQSLHGVFKVKDTTTLQQHLVDGRDMIIIRMPKDFPPFPQKLKFREPQREERICLVTTNFQTKSMSSMVSDTSCTFPSGDGIFWKHWIQTKDGQCGSPLVSTRDGFIVGIHSASNFTNTNNYFTSVPKNFMELLTNQEAQQWVSGWRLNADSVLWGGHKVFMVKPEEPFQPVKEATQL [T44H] | 0.0468 | 0.0582 | 0.057 | 0.0766 |  |  |  | 0.0454 | 0.052 | 0.0524 | 0.0687 | 0.0324 | 0.0583 | 0.0584 | 0.0362 | 0.0676 |  | 0.0563
MGESLFKGPRDYNPISSSICHLTNESDGHTTSLYGIGFGPFIIENKHLFRRNNGTLVVQSLHGVFKVKDTTTLQQHLVDGRDMIIIRMPKDFPPFPQKLKFREPQREERICLVTTNFQTKSMSSMVSDTSCTFPSGDGIFWKHWIQTKDGQCGSPLVSTRDGFIVGIHSASNFTNTNNYFTSVPKNFMELLTNQEAQQWVSGWRLNADSVLWGGHKVFMVKPEEPFQPVKEATQL [T44E] | 0.0178 | 0.04 | 0.0437 |  | 0.0369 | 0.043 | 0.0437 | 0.0495 | 0.0412 |  |  | 0.0288 | 0.0598 | 0.0403 | 0.0226 |  | 0.0415 | 
MGESLFKGPRDYNPISSSICHLTNESDGHTTSLYGIGFGYFIITNKHLFRRNNGTLVVQSLHGVFKVKDTTTLQQHLVDGRDMIIIRMPKDFPPFPQKLKFREPQREERICLVTTNFQTKSMSSMVSDTSCTFPSGDGIFWKHWIQTKDGQCGSPLVSTRDGFIVGIHSASNFTNTNNYFTSVPKNFMELLTNQEAQQWVSGWRLNADSVLWGGHKVFMVKPEEPFQPVKEATQL [P40Y] | 0.0948 |  | 0.163 | 0.0892 | 0.0933 | 0.104 | 0.124 | 0.108 |  | 0.0819 | 0.109 | 0.0919 | 0.0945 | 0.145 | 0.0842 |  | 0.139 | 0.133
